Screen size: about 150,000 compounds; about 540 (0.36%) showed an effect of 50% or more. Some of the results follow.
Test system: Plasmodium falciparum
Experiment: Primary screen in NF54 nanoGlo assay, in single point, at 2uM, 72h; a lower Z score goes with more inhibition
Type: functional, Erythrocyte
Conditions: timepoint 72 hour

| SMILES | % Inhibition | Z score |
| --- | --- | --- |
| O=C(CN1CCN(Cc2ccc(F)cc2Cl)C1=O)N1CCN(c2ccccc2)CC1 | -5% | 0.99 |
| Cc1cnc(-n2cnnc2)c(-c2ccc3c(c2)OCCO3)c1 | 4% | -0.74 |
| O=C(NC[C@@]12CCC[C@H]1N(Cc1ccccc1)C(=O)CC2)c1ncccn1 | -6% | 0.77 |
| CC1COCC(C)N1c1nnc(NC(=O)c2ccc(Cl)cc2)s1 (stereo not drawn) | -4% | 0.61 |
| O=c1nc(CN2CCC[C@H]2C(F)(F)F)[nH][nH]1 | -16% | 1.39 |
| CN(C)Cc1ccc(O)c(CCc2ccccc2)n1 | 64% | -4.36 |
| Nc1nc(-c2ccccn2)nn1C(=O)CCC(=O)c1ccc(F)cc1F | -4% | 0.48 |
| O=C1OC2(CCN(Cc3cccc4nonc34)CC2)CN1CCOc1ccccc1 | -15% | 2.71 |
| Cc1nn(-c2cccc(F)c2)c(N2CCN(C(C)C)CC2)c1CN(C(=O)CCC1CCCC1)C(C)C | -1% | 0.15 |
| O=C(Nc1ccnn1Cc1cccs1)c1ccc([C@@H]2CCCN2)s1 | 5% | -0.62 |
| O=C(NCc1cccnn1)N1CCCC1C1CCCO1 (stereo not drawn) | -13% | 1.17 |
| O[C@H]1CCCN(Cc2cnn(CC(F)F)c2)c2ccccc21 | 0% | 0.02 |
| COCc1ccsc1C(=O)NS(=O)(=O)N1CCc2ccccc2C1 | 2% | -0.26 |
| CC1CCCCN1c1nc2nonc2nc1N1CCCCC1C (stereo not drawn) | -1% | 0.13 |
| Cc1cc(O)ccc1NC(=O)CCc1cscn1 | -11% | 1.94 |
| O=C(c1cccc(OC2CN(C3CCCCCC3)C2)c1)N1CCCC1 | -4% | 0.48 |
| Cc1c(NC(=O)N2CCCC2)cccc1C(=O)N1CCOCC1 | 2% | -0.27 |
| COc1ccccc1O[C@@H](C)C(=O)N1CCN(c2ccc(C)cc2)C(=O)C1 | -8% | 1.24 |
| OCC1(N(Cc2ccccc2)Cc2cn3cccnc3n2)CCCC1 | -4% | 0.66 |
| O[C@H]1CCCN(c2ncc(F)c(N3CCOCC3)n2)CC1 | -1% | 0.19 |
| COCC(=O)N(CCCN1CCCC1)[C@H]1CCCN(C(=O)c2cccc(C)c2)C1 | -1% | 0.1 |
| CC(C)(C)c1cnc(CN[C@H]2CCc3ncnn3C2)o1 | -16% | 1.85 |
| COc1ccc(C(C)=O)cc1COc1ccccc1C(=O)NCc1ccccc1 | -18% | 2.37 |
| Cc1c(Cl)cccc1NC(=O)CCCC(=O)c1ccccc1 | -7% | 1.18 |

Reference: ChEMBL document CHEMBL4888484, “Replenishing the malaria drug discovery pipeline: Screening and hit evaluation of the MMV Hit Generation Library 1 (HGL1) against asexual blood stage Plasmodium falciparum ,using a nano luciferase reporter read-out” (2022)
